# According to PubChem BioAssay AID540317 (National Center for Advancing Translational Sciences (NCATS), 2011):
# The whole screen tested about 390,000 compounds, of which about 2,200 (0.56%) were called active. Inconclusive means that the source gave no clear call. Such entries were picked first, then a sample of the others. The call rests on the fitted dose curve; in most records, active means well fitted inhibition curve with a large enough effect; inconclusive means small, poorly fitted or top-dose-only effect; inactive means no such curve, though single readings can be large or run the other way. A potency beside an inconclusive call is a rough fit, not a confirmed value.
# Target: Chromobox protein homolog 1 (Homo sapiens) (UniProt P83916)
# Chain of UniProt P83916 (P83916 whole entry, looked up): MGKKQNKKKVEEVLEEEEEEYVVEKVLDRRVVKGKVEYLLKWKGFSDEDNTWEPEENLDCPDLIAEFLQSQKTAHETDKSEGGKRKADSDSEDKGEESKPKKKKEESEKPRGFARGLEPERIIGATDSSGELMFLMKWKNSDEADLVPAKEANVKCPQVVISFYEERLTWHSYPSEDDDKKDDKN
# Experiment: HTS for Inhibitors of HP1-beta Chromodomain Interactions with Methylated Histone Tails; further: nearly all actives have a fitted effect of over 70% in size
# Conditions: AlphaScreen HP1-beta / biotin-H3K9me3 peptide binding; series mostly up to 114 µM
# Procedure, shortened: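 HP1-beta protein (50 nM final) preincubated 30 min at room temperature with biotinylated H3(1-18)K9me3 peptide (50 nM) in PBS pH 7.4, 0.01% Tween-20, then compound added for 30 min. AlphaScreen streptavidin donor/nickel chelate acceptor beads (10 ug/mL final), 30 min dark, luminescence read.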
# Potency means the concentration at half of the fitted maximal effect; tags describe the fitted curve by direction and shape.
row,Compound,Potency
1,O=C1C=C(C2CCCCC2)C(=O)c2ccccc21,"inconclusive: 14.1 µM [inhibitor, partial curve, poor fit]"
2,COc1cccc(C(=O)NC(=S)Nc2ccccc2N2CCCC2)c1,active: 22.4 µM
3,COc1cccc2cc(C(=O)NNC(=O)c3ccc(Br)cc3)c(=O)oc12,"inconclusive: 39.8 µM [inhibitor, partial curve]"
4,CC(C)(C)S(=O)N1Cc2cn(Cc3ccccc3)c(=O)cc2[C@@H]1CCO (stereo partly drawn),inactive
5,O=C(CCC1CCCN(C2C3CC4CC(C3)CC2C4)C1)NCc1ccc(F)c(F)c1 (stereo not drawn),inactive
6,Cc1cccc(NS(=O)(=O)c2ccc3c(c2)CCN3C(=O)C2CCC2)c1,inactive
7,COc1ccc(/C=C/C(=O)NC(=S)Nc2cc([N+](=O)[O-])ccc2O)cc1OC,"inconclusive: 14.1 µM [inhibitor, partial curve]"
8,O=C(Nc1nnc(C2CC2)s1)C1Cc2ccccc2CN1C(=O)c1ccco1 (stereo not drawn),"inconclusive: 44.7 µM [inhibitor, partial curve]"
9,Cc1ccc(-n2nnnc2C(Cl)(Cl)c2nnnn2-c2ccc(C)cc2)cc1,"inconclusive: 22.4 µM [inhibitor, full curve]"
10,O=[N+]([O-])c1ccc(O)c(-c2nn[nH]n2)c1,"inconclusive: 5.62 µM [inhibitor, full curve, poor fit]"
11,Cc1ccccc1C(=O)OC1OC(=O)C(Cl)=C1Nc1ccc(C(=O)O)cc1 (stereo not drawn),"inconclusive: 5.62 µM [inhibitor, full curve]"
12,CCC1CCCCN1CC(C)(C)NS(=O)(=O)c1ccccc1 (stereo not drawn),"inconclusive: 56.2 µM [inhibitor, partial curve, poor fit]"
13,CCc1ccc(C2c3[nH]c4ccccc4c3CCN2C(=O)CNC(N)=O)cc1 (stereo not drawn),"inconclusive: 79.4 µM [inhibitor, single point]"
14,S=C(NCc1ccco1)N1CCN(c2nc(-c3ccccc3)cs2)CC1,"inconclusive: 39.8 µM [inhibitor, partial curve]"
15,CC(=O)c1ccc2c3c(cccc13)C(=O)N(CCc1ccccc1)C2=O,"inconclusive: 28.2 µM [inhibitor, partial curve, poor fit]"
16,Clc1cccc(Cl)c1OCCOCCNCc1ccccc1,"inconclusive: 63.1 µM [inhibitor, single point]"
17,Cc1ccc(OCC(=O)N(Cc2ccc(N(C)C)cc2)C2CCS(=O)(=O)C2)cc1C (stereo not drawn),"inconclusive: 25.1 µM [inhibitor, single point]"
18,CCOC(=O)Nc1sc(C(=O)N(CC)CC)c(C)c1C(=O)OCC,"inconclusive: 7.94 µM [inhibitor, full curve]"
19,CCN(CCO)Cc1cn[nH]c1-c1ccc(C)c(C)c1,"inconclusive: 89.1 µM [inhibitor, single point]"
20,CCN(c1cccc(C)c1)c1ncnc2c1cnn2-c1cccc(Cl)c1,inactive
21,COc1ccc(NC(=O)COC(=O)C2CCC(C(C)(C)C)CC2)c([N+](=O)[O-])c1 (stereo not drawn),"inconclusive: 22.4 µM [inhibitor, partial curve, poor fit]"
22,COc1ccc(-n2nc([N+](=O)[O-])c(=NCCc3cccc(C)c3)n2O)cc1,"inconclusive: 20 µM [inhibitor, partial curve, poor fit]"
23,Oc1ccc(N=Cc2ccc(OCc3ccccc3)cc2)cc1,"inconclusive: 50.1 µM [inhibitor, partial curve]"

row,Compound,Potency
1,COC(=O)c1ccc(NC2=CC(=O)CC(C)(C)C2)cc1,"inconclusive: 7.08 µM [inhibitor, single point]"
2,COc1ccc(CN2CCN(c3ccccn3)CC2)c(OC)c1,"inconclusive: 20 µM [inhibitor, full curve]"
3,Cc1ccc(C2=NNC(c3ccc(Cl)cc3)=Nc3ccccc32)o1,"inconclusive: 17.8 µM [inhibitor, full curve, poor fit]"
4,CC1CCCN(C(=O)COC(=O)CNS(=O)(=O)c2ccc3ccccc3c2)C1 (stereo not drawn),inactive
5,O=C(COC(=O)Cc1ccc(S(=O)(=O)N2CCOCC2)s1)Nc1ccccc1,inactive
6,COc1ccccc1N1CCN(CC(O)COc2ccc(C)cc2C(C)(C)C)CC1 (stereo not drawn),"inconclusive: 17.8 µM [inhibitor, partial curve, poor fit]"
7,COc1cccc(NC(=O)CN(C)C(C)C(=O)N2CCCCC2)c1 (stereo not drawn),"inconclusive: 25.1 µM [inhibitor, single point]"
8,Brc1ccc(CNc2cc3c(cc2Br)OCCO3)cc1,"inconclusive: 39.8 µM [inhibitor, partial curve]"
9,CCN(CC)S(=O)(=O)c1ccc2c(c1)c(=O)c(C(=O)NCCCN(C)c1ccccc1)cn2C,"inconclusive: 17.8 µM [inhibitor, full curve]"
10,OC(COCc1ccco1)CN1CCN(c2ccccc2)CC1 (stereo not drawn),"inconclusive: 39.8 µM [inhibitor, partial curve]"
11,Cc1ccc(S(=O)(=O)Nc2cccc(NC(=O)CN3CCCCC3)c2)cc1,"inconclusive: 56.2 µM [inhibitor, single point]"
12,Clc1cc(Br)ccc1OCCn1ccnc1,"inconclusive: 17.8 µM [inhibitor, full curve, poor fit]"
13,C(=NN=C1c2ccccc2-c2ccccc21)c1c[nH]c2ccccc12,"inconclusive: 50.1 µM [inhibitor, partial curve]"
14,CCOc1ccccc1O[C@H](c1ccccc1)[C@H]1CNCCO1,inactive
15,CN(C(=O)/C=C/c1ccccc1)C1CCCCC1,inactive
16,COC(=O)COc1ccc(/C=N/NC(=O)c2ccc(N(Cc3ccccc3)S(C)(=O)=O)cc2)cc1,inactive
17,c1ccc2cc(OCCN3CCCC3)ccc2c1,"inconclusive: 89.1 µM [inhibitor, single point]"
18,CCc1ccc2nc(N3C(=O)C(O)=C(C(=O)c4ccco4)C3c3cccs3)sc2c1 (stereo not drawn),"inconclusive: 50.1 µM [inhibitor, partial curve]"
19,CCc1ccc2c(c1)c(=O)c(S(=O)(=O)c1ccccc1)cn2CC(=O)Nc1ccc(OC)cc1,inactive
20,CCC(=O)N(CCc1ccccc1C)Cc1cc2ccc(C)cc2[nH]c1=O,inactive
21,Nc1ccc(OCc2ccccc2)cc1[N+](=O)[O-],"inconclusive: 14.1 µM [inhibitor, single point]"
22,COc1ccccc1C(CNC(=O)c1ccc(S(=O)(=O)N2CCCCC2)cc1)N(C)C (stereo not drawn),inactive
23,CC1CCC(C(C)C)C(OCC(O)C[N+]2(C)CCCCC2)C1 (stereo not drawn),"inconclusive: 89.1 µM [inhibitor, partial curve, poor fit]"

row,Compound,Potency
1,CC(C)CNC(=O)C1CCN(CC2CCCCC2)CC1,inactive
2,COC(=O)CCC(=O)OC1(C)C(=O)C2=CN(Cc3ccc(OC)cc3)C(c3ccc(OC)cc3)=CC2=C(Br)C1=O (stereo not drawn),"inconclusive: 22.4 µM [inhibitor, full curve]"
3,S=C(NCc1ccco1)Nc1ccc(Br)cn1,inactive
4,O=[N+]([O-])c1ccc(C(=S)N2CCC(Cc3ccccc3)CC2)cc1,"inconclusive: 17.8 µM [inhibitor, full curve, poor fit]"
5,CCOC(=O)CN1C(=O)S/C(=C\c2ccc(-c3ccc(C(=O)O)c(Cl)c3)o2)C1=O,inactive
6,Cc1cc(C)cc(NC(=O)C2CCN(S(=O)(=O)c3ccc4[nH]c(=O)ccc4c3)CC2)c1,inactive
7,COc1cccc(C(=O)N2CCN(Cc3ccc(OC)cc3OC)CC2)c1,"inconclusive: 15.8 µM [inhibitor, partial curve, poor fit]"
8,N=C1/C(=C/c2ccc(-c3cccc(C(=O)O)c3)o2)C(=O)N=C2SC=C(c3ccccc3)N12,"inconclusive: 12.6 µM [inhibitor, full curve]"
9,O=C1NC(=O)C(=Cc2ccccc2[N+](=O)[O-])S1,"inconclusive: 15.8 µM [inhibitor, partial curve, poor fit]"
10,O=C(C1CCN(Cc2ccc(OCc3ccccc3)cc2)CC1)N1CCCC1,"inconclusive: 44.7 µM [inhibitor, partial curve, poor fit]"
11,C=CCn1c(SCc2c(C(=O)OC)sc(N)c2C(=O)OC)nnc1-c1ccc(Br)cc1,inactive
12,COc1ccccc1NC(=O)c1c(N=Cc2c(O)ccc3ccccc23)cnn1C,"inconclusive: 39.8 µM [inhibitor, partial curve, poor fit]"
13,COc1ccc(Br)cc1CN(C)CC(O)COc1ccc(Br)cc1 (stereo not drawn),inactive
14,O=C(CC1Sc2ccccc2NC1=O)Nc1cccc(C(=O)O)c1 (stereo not drawn),"inconclusive: 28.2 µM [inhibitor, full curve]"
15,CCC(=O)Nc1ccc(NC(=S)NC(=O)c2cc3ccccc3o2)cc1,"inconclusive: 22.4 µM [inhibitor, single point]"
16,COc1ccc(/C=C(\C#N)C(=O)C(C)(C)n2cncn2)cc1,inactive
17,COc1ccc(CNc2oc(-c3ccc(COc4ccc(OC)cc4)o3)nc2C#N)cc1,"inconclusive: 11.2 µM [inhibitor, partial curve]"
18,COCCNCC(=O)Nc1ccc(C)c(S(=O)(=O)N2CCCCC2)c1,"inconclusive: 12.6 µM [inhibitor, partial curve, poor fit]"
19,CCc1nn(CC(=O)N2CCN(c3cccc(C(F)(F)F)c3)CC2)c(=O)c2cccn12,inactive
20,CCN1CC2=C(OC(N)=C(C#N)C2c2cccs2)/C(=C\c2cccs2)C1 (stereo not drawn),"inconclusive: 50.1 µM [inhibitor, partial curve]"
21,COc1ccc(CCNc2nc(-c3sc(C)nc3C)cs2)cc1OC,"inconclusive: 44.7 µM [inhibitor, partial curve]"
22,CC(C(=O)NC1C=CS(=O)(=O)C1)N1C(=O)/C(=C/c2cccc(Cl)c2)SC1=S (stereo not drawn),inactive
